The source gives no read counts; variants with many changes may rest on few reads.
B1: CPEB3 Ribozyme (parent)
chain: UAACAGGGGGCCACAGCAGAAGCGUUCACGUCGCAGCCCCUGUCAGAUUCUGGUGAAUCUGCGAAUUCUGCUGUAUAUCUC

Variants of: B1
Assay: self-cleavage, relative activity (ratio to wild type); higher = more cleavage; in vitro, sequencing
Method in brief: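 CPEB3 self-cleaving ribozyme mutant libraries were made by rounds of error-prone PCR, barcoded, and transcribed in vitro with T7 RNA polymerase for 5 hours at 37°C. Cleavage occurred during transcription and a 15 min DNase I step before EDTA stop. RNAs were reverse transcribed with template switching and Illumina-sequenced, with DNA sequencing mapping barcodes to variants. Relative activity is the variant's cleaved/total read fraction divided by wild type's (minimum 5 reads), averaged across three batches.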
UAGCAGGGAGCCACAGCAGAGGCGUUCACGUCGCAGCCCCUGUCAGAUUCUGGCGAAUCUGCGGAUUCUGCUGUAAAUCUC showed a self-cleavage of 0.08. Work on UAGCAUGGGGCCACAGCAGAAGCGUUCACGUCGCAGCCCCUGUCAGAUUCUGGUGAAUCCGCGAAUUCUGCUGUAUAUCUC yielded a self-cleavage of 0.05. With UAGCAGCGGGCCACUGCAGAAGCGUUCACGUCGCAGCCCCUGUCAGAUUCAGGUGAAUCUGCGAAUUCUGCUGCAUAUCUC the self-cleavage was 0.41. UAGCAGUGGGCCACAGCAGAAGCGUUCACGUCGCAGCCCCUGUCAGAUUCUGGUGAAUCUGCGAAUUCUGCUGUGUAUCUC gave a self-cleavage of 0.5. In the case of UAGCAGGGAGCCUCAGCAGAAGCGUCCACGUCGCAGCCCCUGUCAGAUUCUGGUGAAUCUGUGAAUUCUGCUGUAUAUCUC, the self-cleavage is reported as 0.11. Work on UAGCAGGAGGCCACAGCAGAAGCGUUCACGUCGCUGCCCCUGUCAGAUUCUGGUGAAUCCGCGAAUUCAGCCGUAUAUCUC yielded a self-cleavage of 0.05. For UAGCAGGAGGCCACAGCAGAAGCGUUCACGUCGCGGCCCCAGUCAGAUUCUGGUGAAUCUGCGAAUUCUGCAGUAUAUCUC, the self-cleavage was 0.05. UAGCAGGAGGCCACAGCAGAAGCGUUCUCGUCGCAGCCCCCGUCAGAUUCUGGUGAAUCUGCGAAUUCUGCAGAAUAUCUC gave a self-cleavage of 0.11. With UAGCAGUGGGCCACAGCAGAAGCGUUCACGUCGCAGCCCCUGUCAGAUCCUGGUGAAACUGUGAAUGCUGCUGUAUAUCUC the self-cleavage was 0.04. In the case of UAGCAUGGGGCCACAGCUGAAGCGCUCACGUCGCAGCCCCUGCCAGAUUCUGGUGAAUCUGCGAAUUCUGCUGUAUAUCUC, the self-cleavage is reported as 0.48. With UAGCAGGAGGCCACAGCAGAAGCGUUCACGUCGUAGCCCCUGUCGGAUUCUGGUGAAUCUGCGAAUUCUGCUGUAUAUCUC the self-cleavage was 0.06. UAGCAGAGGGCCACAGCAGAAGCGUUCACGUCGCAGCCCCUGUCAGAUUGCGGUGAAUCUGCGAGUUCUGCUGUAUAUCUC showed a self-cleavage of 0.08. With UAGCAGGUGGCCACAGCAGAAGCGUUCACGUCGCAGCUCCUGUCAGAUUCUGGAGAAUCUGCGAAUUCUGCUGUAUAUCUC the self-cleavage was 0.06. With UAGCAGGGUGCCACGGCAGAAGCAUUCACGACGCAGCCCCUGUCAGAUUCUGGUGAAUCUGCGAAUUCUGCUGUAUACCCC the self-cleavage was 0.07. Variant UAGCAGAGGGCCACAGCAGGAGCGUUCACGUCGCAGCCCCUGUCAGAUUCUGGUGAAUCUGCGAACUCUGCUGUAUAUCUC has a self-cleavage of 0.27. In the case of UAGCAUGGGGCCACAGCAGAAGCGUUCACGUCGCAGCCCCUGCCAGAUUCUGGUGAAUCUGCGAAUUCUGCUGUAUAUCUC, the self-cleavage is reported as 0.44. For UAGCAGGGAGCCCCAGCAGAAGCCUUCACGUCGCGGCCCCUGUCAGAUUCUGGUGAAUCUGCGAAUUCUGCUGUAUUUCUC, the self-cleavage was 0.69. UAGCAGGAGGCCGCAGCAGAAGCGUUCACGUCGCAGCCCCUGUCAGAUUCUGGUGAAUCUGCGAAUUCUGCUGUAUAUCUC showed a self-cleavage of 0.61. In the case of UAGCAGCGGGCCACGGCAGAAGCGUUCACGACGCAGCCCCUGUCAGAUUCUGGCGAAUCUGCGAAUUCUGCUGAAUUUCUC, the self-cleavage is reported as 0.1. Variant UAGCAGGAGGCCACAGCAGAAGCGUUCACGUCGUAGCCCCUGUCAGAUUCUGGUGAAUCUGCGAAUUCUGCUGUAUAUCUC has a self-cleavage of 0.24. Variant UAGCAUGGGGCCACAGCAGAAGCGCUCACGGCGCAGCCCCUGUCGGAUUCUAGUGAAUCUGCGAAUUCUGCUGUAUAUCUC has a self-cleavage of 0.06. In the case of UAGCAGGCGGCCACAGCAGAAGCGUACACGUCGCAGCCCCUGUCAGAUUCUGUUGAAUCUGCGAAUUCUGCUGUAUAUCCC, the self-cleavage is reported as 0.49. In the case of UAGCAGUGGGCCACAGCAGAAGCGUUCACGUCGCAGCCCCUGUCAGAUUCUGGCGAAACUGCGAAUUCUGCUGUAUUUCUC, the self-cleavage is reported as 0.34. With UAGCAGCGGGCCACAGCAGAAGCGUUCACGUCGCAGCCCCUGUCAGUUUCUGGUGAAUCUGCGAAUUCUGCUGUAUAUCUC the self-cleavage was 0.13. In the case of UAGCAUGGGGCCACUGCAGAAGCGCUCAUGUCGCAGCCCCUGUCGGAUUCUGGUGAAACUGCGAAUUCUGCUGUAUAUCUC, the self-cleavage is reported as 0.08. In the case of UAGCAGGUAGCCACAGCUGAAGCGUUCACGUCGCAGCCCCUGUCAGAUUCUGGUGAAUCUGCGAAUUCUGCUGUAUAUCUC, the self-cleavage is reported as 0.13. UAGCAGGGAGCCUCAGCAGAAGCGUUCACGUCGCAGCCCCUGUCAGAUUCUGGUGAAUCUGCGAAUUCUGCUGUAAAUCUC gave a self-cleavage of 0.75. UAGCAGGAGGCCACAGCAGAAGCGUUCACGUCGCAGCCCCUGUCAGAUUCUGGAGAAUCUGCGAAUUCUGCUGUAUAUCUC showed a self-cleavage of 0.48. Work on UAGCAGCGGGCCACAGCAGAAGCGUUCACGUCGCAGCCCUCGUCAGGUUCUGGUGAAUCUGCCAAUUCUGCUGUAUAUCCC yielded a self-cleavage of 0.06. In the case of UAGCAUGGGGCAACAGCAGAAGCGUCCACGUCGCAGCCCCUGUCAGAUUCUGGUGAAUCUGCGAAUUCUGCUGUAUAUCUC, the self-cleavage is reported as 0.43. In the case of UAGCAGGAGGCCACAGCAGUAGCGUUCACGUAGCAGCCCCUGUCAGAUUCCGGUGAAUCAGCGAAUACUGCUGUAUAUCUC, the self-cleavage is reported as 0.06. With UAGCAGUGGGCCACAGCAGAAGCGUUCUCGUCGCAGCCCCUGUCAGGAUCUGGUGAAUCUGCGAAUUCUGCUGUAUAUCUC the self-cleavage was 0.07. Variant UAGCAGGGAGCCACAGCAGAUGCGUUCACGUCGCAGCCUCUGUCAUUUUCUGGUGAAUCUGCGAAUUCUGCUGUAUAUCUC has a self-cleavage of 0.22. Work on UAGCAGGGAGCCACAGCAGAAGCGUUCACGUCGCAGCCCCUGUCAGAUUCUGGUGAAUCUGCGAAUUCUGCUGUAUAUCCC yielded a self-cleavage of 0.15.

Source: the RNAGym collection of RNA variant scans (doi:10.1093/nar/gkz1192)
